# Results reported in paper PMC12136788.
# Some of the results follow.
# T1: UNK ZnF1-3 (human, UniProt Q9C0B0 31-174)
# T1 sequence: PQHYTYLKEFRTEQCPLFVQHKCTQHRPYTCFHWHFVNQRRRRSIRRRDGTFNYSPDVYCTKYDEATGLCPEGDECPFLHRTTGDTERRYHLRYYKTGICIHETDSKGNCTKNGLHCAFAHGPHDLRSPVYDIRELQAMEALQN
# B1: chr6:128323885:128323886:+_ENSMUSG00000001517_ENSMUST00000073316|mus_hu|FALSE|FALSE (ssRNA)
# RNA: GGGAGUUCUACAGUCCGACGAUCUGGGUCCUCGUCCAGGCCAGGAAAGCUGAUGUCCAGCAGGAUCUUGCUGAGGCUGUCAUUCAUUGUGUCCAGGACCAGGCCUUCUGUCAGAGAACGAUUGGCUGCAAGGCCAGAAACCUGCAACAGAGGAUUGAGCAUCA
# B2: chr12:7074771:7074772:-_ENSG00000215021_ENST00000535923|hu_mus|FALSE|FALSE (ssRNA)
# RNA: GGGAGUUCUACAGUCCGACGAUCGAGGGCAGAUACAGAAAAGUCCAUCACAUGAUGCCUGGGGCAGGGUGGGCUGUGCUUGACCCCCGAGCUGGCUCCUCCAAGCUGGACAAGUGUGCCAACUUCUCUGGUGGUGGGGUUCUUCAACAGAGGAUUGAGCAUCA
# B3: 31989591_31993041_617_CDS_ENSMUSG00000024400_ENSMUST00000025264|mouse|control|control (ssRNA)
# RNA: GGGAGUUCUACAGUCCGACGAUCGUUGAAAGUCAGCCCAUUCCACAAGGUGAACUCCCCACUAGAAGCUCCAGUGACCAAUCGUCUUCCUUCCGGGGUCCACCUCACAACAAAUACUGGGCAUUUAACUUUGUUUGUUGAUGUCAACAGAGGAUUGAGCAUCA
# B4: chr12:39756943:39756944:-_ENSG00000139116_ENST00000544797|hu_mus|hu_hu_hu_mus_False|8_68 (ssRNA)
# RNA: GGGAGUUCUACAGUCCGACGAUCGGUUUGGCUGUUACCCCCAAGGGAAUCCUGCAAGAGUCUUGUCAGCUUGGAAUCUCUGUAAGGGACAUGGGUGGCUCUCUUGCUCUUGUCCCCCAAGGCGCUGAUUACAUUGCCAAGAGCCAACAGAGGAUUGAGCAUCA
# B5: chr12:7080122:7080123:+_ENSG00000126749_ENST00000261406|hu_mus|FALSE|FALSE (ssRNA)
# RNA: GGGAGUUCUACAGUCCGACGAUCCCGGAGCUUCUUAGGCGGCGUAGUCUCCCAGUCCUGCUCCUGCACUGAAAAUCGCCGCUCACGAGGUUGGAAGCCACCACUGGCCGCAGACAUCUUGUAGGCAGACCGGAAGUUGCACCGCAACAGAGGAUUGAGCAUCA
# B6: chr1:212156110:212156111:-_ENSG00000143493_ENST00000366992|hu_mus|FALSE|FALSE (ssRNA)
# RNA: GGGAGUUCUACAGUCCGACGAUCUCCAUGAGCUGCGAUGCCCCUGUUGCUAUGGUAACAGCAUUCUUGAGCUAAUUUGACUAAAUCAGAAGAUCUGGGGGAAGAGCCUACAUUUCCGGGAACUACACUGAAGUAAUGUUUAAUCAACAGAGGAUUGAGCAUCA
# B7: 43591537_43591657_148_5pUTR_ENSMUSG00000028467_ENSMUST00000030189|mouse|control|control (ssRNA)
# RNA: GGGAGUUCUACAGUCCGACGAUCGGCGGUGCCGCGGUACCUGCCCGCAAAGCACCGCCUCUGGGACCCGCCCAGGAGCUCCCGGCGACCUUCGGCCCCGCCCCGGGCUGCGGCUCCAGCGGCUCCAGGGCUGGGUACCGGGUCCAACAGAGGAUUGAGCAUCA
# B8: chr10:1038552:1038553:+_ENSG00000107937_ENST00000545048|hu_mus|FALSE|FALSE (ssRNA)
# RNA: GGGAGUUCUACAGUCCGACGAUCAUAAAACGGAUGGAUAUCAUCCAAUUUGGGGAAAUCCGACAGAAUCUGUGACAGUCUGUCAUGGUAAUUCUGUUGAGUAAAUUUGACUUUUCUCAUAUAAAAAUGUCGAAUCCGAUGAAUCAACAGAGGAUUGAGCAUCA
# B9: chr19:38862730:38862731:-_ENSMUSG00000024999_ENSMUST00000025963|mus_hu|FALSE|FALSE (ssRNA)
# RNA: GGGAGUUCUACAGUCCGACGAUCCUUAGGCCACUCCUAGAAUAUGGGAAUAGCUGUUACAUAAAAUACUGUUUUAUAAUUAUAUUAAUAAGAAAAAGCAUUUUACCUGUUCCAAGAGGGGAAAAAAGCUCCUCAUUGAGUAUCCAACAGAGGAUUGAGCAUCA
# B10: chrX:91780989:91780990:-_ENSMUSG00000025151_ENSMUST00000026142|mus_mus|motif|central (ssRNA)
# RNA: GGGAGUUCUACAGUCCGACGAUCCUCUCUAGAUAGCGUGUUUUGAAGGAACCUGAGGCUUCAGCCUCACUCAGGGAAAACGGUUGCAAAUGAUGAGCAGUAUCUGACAAUUUACUCAACCCAGAAGAAGCCAAUGGCACCGAACAACAGAGGAUUGAGCAUCA
# B11: 44134987_44135107_120_5pUTR_ENSMUSG00000032123_ENSMUST00000054708|mouse|control|control (ssRNA)
# RNA: GGGAGUUCUACAGUCCGACGAUCGGCCGCCGCCCCGCCGCCUACUCAGCUAACUGGUAAGCCAGGAACAAUCCCGUGGCCUCGGCAGCCGGCAGUGCGGCUCCCAACCCGCAGAGGAUUCCGGCGCCAGCGGGAACAAAACCCCAACAGAGGAUUGAGCAUCA
# B12: chr1:46159212:46159213:+_ENSG00000159596_ENST00000372025|hu_mus|hu_hu_hu_mus_True|1_8 (ssRNA)
# RNA: GGGAGUUCUACAGUCCGACGAUCUCUGAUCCCUCCCAAGAAAGCUAGGAAACCGGCUCCAUAAGCCAUCUGAGUGAAAGCUAGGACGGGGAUAUAAGACUUUGUUAUUACCAUGAGAAGUGGGGGAGCAACGAAGGGGAUUAGCAACAGAGGAUUGAGCAUCA
# B13: chr4:115894766:115894767:+_ENSMUSG00000028698_ENSMUST00000030464|mus_hu|mus_mus_mus_hu_True|58_58 (ssRNA)
# RNA: GGGAGUUCUACAGUCCGACGAUCUUCCACACGGAAAUGUACUUCGGGUUUUCCAACGGCCAGUACCAGUCCGGCCAACUACUAGGAACAGGGUCCUCCCCCUCUCUCCUACAGAACACAACAAAAUGCCCCCGAACUUUCAAGCAACAGAGGAUUGAGCAUCA
# B14: chr17:56552419:56552420:-_ENSMUSG00000013236_ENSMUST00000086828|mus_mus|mus_mus_mus_hu_False|88_108 (ssRNA)
# RNA: GGGAGUUCUACAGUCCGACGAUCAAAGUUUUUUUCUUUUAAAAAAAAAAGAAAAAAACGGGAUACAGUUACACUGAGAGUUUUAAAAGAAAGCUGGAUUCUGGUCCCAGCCCAGUGUCCCCAGGCUGCAGAGCGGGGAGGAGCCAACAGAGGAUUGAGCAUCA
# Target: T1, UNK ZnF1-3
# Assay: nsRBNS (natural sequence RNA bind-n-seq); RBNS binding buffer (assumed for nsRBNS): 25 mM Tris pH 7.5, 150 mM KCl, 3 mM MgCl2, 0.01% Triton X-100, 500 ug/ml BSA, 20 U/ml SUPERase-In, 4 C; UNK is unkempt and MSI1 is Musashi-1; names of the RNAs are library labels; protein concentration not given here; high values mean tight binding
row,Binder,binding signal [enrichment R]
1,B1,0.65
2,B2,1.26
3,B3,0.467
4,B4,0.672
5,B5,0.766
6,B6,1.91
7,B7,0.0895
8,B8,0.498
9,B9,1.37
10,B10,1.53
11,B11,0.487
12,B12,1.97
13,B13,0.99
14,B14,1.29
